# The campaign covered roughly 270,000 compounds. About 5,800 (2.1%) were called active. Inconclusive means that the source gave no clear call. Such entries were picked first, then a sample of the others. Calls follow the shape of the dose curve; as a rule, active = well fitted inhibition curve with a large enough effect; inconclusive = small, poorly fitted or top-dose-only effect; inactive = flat fitted curve, though single readings scatter. Potencies of inconclusive entries are doubtful fits and often do not repeat.
# Target: Microtubule-associated protein tau (Homo sapiens) (UniProt P10636)
# Sequence of UniProt P10636 (P10636 whole entry, looked up): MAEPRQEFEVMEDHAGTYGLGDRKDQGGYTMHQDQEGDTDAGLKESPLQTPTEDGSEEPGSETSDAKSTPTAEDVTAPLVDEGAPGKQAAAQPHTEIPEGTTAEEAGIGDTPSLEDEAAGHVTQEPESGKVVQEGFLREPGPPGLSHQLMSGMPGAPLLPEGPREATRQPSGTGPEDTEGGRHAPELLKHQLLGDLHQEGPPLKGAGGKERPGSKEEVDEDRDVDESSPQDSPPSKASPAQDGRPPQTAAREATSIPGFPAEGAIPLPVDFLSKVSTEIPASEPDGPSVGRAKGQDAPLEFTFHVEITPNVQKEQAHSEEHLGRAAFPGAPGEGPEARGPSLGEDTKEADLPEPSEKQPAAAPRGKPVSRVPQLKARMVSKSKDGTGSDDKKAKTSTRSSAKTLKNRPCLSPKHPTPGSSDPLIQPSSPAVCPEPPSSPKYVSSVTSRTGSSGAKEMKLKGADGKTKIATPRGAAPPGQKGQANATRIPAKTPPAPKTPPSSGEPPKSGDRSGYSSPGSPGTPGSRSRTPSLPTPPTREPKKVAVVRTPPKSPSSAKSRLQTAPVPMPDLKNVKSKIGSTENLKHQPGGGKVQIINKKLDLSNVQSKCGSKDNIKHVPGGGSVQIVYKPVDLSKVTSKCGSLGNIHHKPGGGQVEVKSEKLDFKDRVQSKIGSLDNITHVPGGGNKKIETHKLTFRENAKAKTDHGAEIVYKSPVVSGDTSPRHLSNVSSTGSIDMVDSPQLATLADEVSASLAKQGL
# Test: qHTS for Inhibitors of Tau Fibril Formation, Thioflavin T Binding; also: nearly all actives have a fitted effect of over 55% in size
# Conditions: recombinant tau K18 P301L, heparin-induced fibrillization, ThT fluorescence; series mostly up to 57.4 µM
# In short: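 Fibril formation assay: tau K18 P301L at 15 uM with trace Alexa 594 label, heparin inducer 20 uM, pH 7 sodium acetate buffer, 37 C for 6 hr; endpoint ThT signal.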
# Potency is read from the fitted curve at half-maximal effect; tags tell the direction and shape of the fitted curve.
row,SMILES,Potency
1,CCOC(=O)c1cc2c(=O)n3ccccc3nc2n(CC2CCCO2)c1=NC(=O)/C=C/c1ccccc1 (stereo unspecified),"inconclusive: 28.2 µM [inhibitor, single point]"
2,CC1=CSC2=NC(=O)/C(=C/c3cccc(OC(=O)c4ccco4)c3)C(=N)N12,"inconclusive: 14.1 µM [inhibitor, partial curve]"
3,N#C/C(=C\c1c(Cl)cccc1Cl)c1nc2ccccc2[nH]1,"inconclusive: 22.4 µM [inhibitor, single point]"
4,Cc1ccc(Cl)cc1NC(=O)Cn1c(=O)n(C(C)C)c(=O)c2oc3ccccc3c21,inactive
5,Cc1nn2c(=O)cc(COC(=O)c3cccc(NC(=O)c4ccc(F)cc4)c3)nc2s1,"inconclusive: 1.78 µM [inhibitor, full curve]"
6,O=C1c2ccccc2C(=O)N1CCN1CCc2ccccc21,inactive
7,Cc1nc(S/C(=C\c2ccc(-c3ccc(C(=O)O)c(Cl)c3)o2)C(=O)O)n[nH]1,"inconclusive: 12.6 µM [inhibitor, partial curve]"
8,CCOC(=O)c1ccccc1NC(=O)COC(=O)CC(C)(C)CC1=NS(=O)(=O)c2ccccc2N1,inactive
9,O=C1N/C(=C\c2ccc(O)cc2)C(=O)c2ccccc21,"inconclusive: 14.1 µM [inhibitor, partial curve]"
10,CCOc1ccccc1OCc1nn2c(-c3ccc(C)cc3)nnc2s1,"inconclusive: 39.8 µM [inhibitor, single point]"
11,COc1ccc(S(=O)(=O)NCC(c2ccc(N(C)C)cc2)N2CCc3ccccc32)cc1F (stereo unspecified),"inconclusive: 10 µM [inhibitor, partial curve]"
12,CCCCCCC(C)OC(=O)c1ccccc1C(=O)O (stereo unspecified),inactive
13,O=C(O)c1c(Cl)c(Cl)c(Cl)c(Cl)c1-c1c2cc(I)c(=O)c(I)c-2oc2c(I)c(O)c(I)cc12,active: 3.16 µM
14,COc1cc(O)cc2cc3c(c(O)c12)C(=O)CC(C)(O)O3 (stereo unspecified),active: 25.1 µM
15,COc1ccc(/C=C2\CCCC3C2=NC(=S)NC3c2ccc(OC)cc2)cc1 (stereo unspecified),inactive
16,CC(=O)c1cc2c(cc1NC(=O)c1cc3nc(C(C)C)cc(C(F)(F)F)n3n1)OCO2,"inconclusive: 22.4 µM [inhibitor, partial curve]"
17,COc1ccccc1N1CCN(Cc2nc(N)nc(Nc3ccc(C)c(Cl)c3)n2)CC1,"inconclusive: 11.2 µM [inhibitor, partial curve]"
18,O=C(Nc1ccc(N2CCCCC2)cc1)c1ccc(F)cc1,inactive
19,O=C(CC1NCCc2ccccc21)Nc1ccc(Oc2ccccc2)cc1 (stereo unspecified),"inconclusive: 14.1 µM [inhibitor, partial curve]"
20,CCOC(=O)c1cccc(NC(=O)N2CC=C(c3c[nH]c4ccccc34)CC2)c1,"inconclusive: 8.91 µM [inhibitor, partial curve]"
21,CCOc1ccc2nc(/N=C/c3c(C)[nH]n(-c4ccc(C)cc4)c3=O)sc2c1,"inconclusive: 12.6 µM [inhibitor, partial curve]"
22,CCOC(=O)Cc1c(C(=O)OCC)nnc2c(-c3ccccc3)c(C)nn12,"inconclusive: 15.8 µM [inhibitor, partial curve]"
23,CC(=O)c1ccc(NC(=O)CC2Oc3ccc(C)cc3NC2=O)cc1 (stereo unspecified),inactive

row,SMILES,Potency
1,CN(CC(=O)Nc1cc([N+](=O)[O-])ccc1Cl)Cc1ccc(Br)cc1,"inconclusive: 14.1 µM [inhibitor, partial curve]"
2,COc1ccc(OC)c(NC(=O)N2CC3CCCN3c3ccccc32)c1 (stereo unspecified),inactive
3,O=C1CCCCCN1C(=O)c1cccc(C(=O)N2CCCCCC2=O)c1,inactive
4,Cc1cc(C)n(-c2nc(C)c(C)c(=O)n2CC(=O)Nc2cccc([N+](=O)[O-])c2)n1,inactive
5,COc1ccc(/C=C2\SC(=S)N(NC(=O)c3ccncc3)C2=O)cc1OC,"inconclusive: 14.1 µM [inhibitor, partial curve]"
6,COc1cccc(NC(=O)C2CCN(S(=O)(=O)c3ccc4[nH]c5c(c4c3)CCCCC5)CC2)c1,inactive
7,CCCCCCCCCCCCCCCCCC(=O)OC(CC(=O)O)C[N+](C)(C)C (stereo unspecified),"inconclusive: 6.31 µM [inhibitor, partial curve]"
8,O=S(=O)(c1cccc2nsnc12)N1CCN(C/C=C\c2ccccc2)CC1,inactive
9,COc1ccc(CN2CSC(=S)N(Cc3ccc(OC)cc3)C2)cc1,inactive
10,C=CCN1CN=C(NS(=O)(=O)c2ccc(NC(C)=O)cc2)NC1,inactive
11,Cc1nn(C(=O)c2cccc([N+](=O)[O-])c2C)c(C)c1S(=O)(=O)N1CCCCCC1,"inconclusive: 39.8 µM [inhibitor, single point]"
12,CCCCCCC(=O)OCC(=O)c1ccc2c(c1)NC(=O)CO2,inactive
13,CN(C)S(=O)(=O)c1cc(NC(=O)CN2CCN(c3ccccc3F)CC2)ccc1Cl,inactive
14,COc1ccc(/C=c2\sc3nc(-c4ccccc4OC)nn3c2=O)c(OC)c1,"inconclusive: 3.98 µM [inhibitor, full curve]"
15,COc1ccc(OCC(=O)N/N=C/C=C/c2ccccc2)cc1,"inconclusive: 11.2 µM [inhibitor, partial curve]"
16,COc1ccc(-c2cc3nc(C)c(CCC(=O)NC(C)c4ccccc4)c(C)n3n2)c(OC)c1 (stereo unspecified),"inconclusive: 0.224 µM [inhibitor, full curve, poor fit]"
17,Cc1c(Cl)ccc2sc(N3CCN(C(=O)C4CC4)CC3)nc12,"inconclusive: 1.26 µM [inhibitor, full curve]"
18,O=C(CN1CCCc2ccccc21)N/N=C/c1ccccc1O,"inconclusive: 31.6 µM [inhibitor, single point]"
19,COc1ccc(-c2onc(C)c2C)cc1S(=O)(=O)N1CCN(c2cc(C)ccc2C)CC1,inactive
20,CC1=C(C(=O)Nc2ccc(F)c(F)c2)C(c2cccs2)NC(=S)N1 (stereo unspecified),inactive
21,O=C(Nc1ccccc1C(F)(F)F)N1CC=C(c2c[nH]c3ccccc23)CC1,"inconclusive: 31.6 µM [inhibitor, partial curve, poor fit]"
22,CC(C)c1ccc(OC(=O)NCCO)cc1,inactive
23,CCC1OC2(C)OC(=N)C1(C#N)C(C#N)(C#N)C2c1ccccc1 (stereo unspecified),"inconclusive: 39.8 µM [inhibitor, single point]"

# From PubChem BioAssay AID1460 (National Center for Advancing Translational Sciences (NCATS), 2008)
